Laboratory results: PubChem BioAssay AID1768 (National Center for Advancing Translational Sciences (NCATS), 2009)
The whole screen tested about 270,000 compounds, of which about 620 (0.23%) were called active. The shares of active, inactive and inconclusive entries below differ from those in the screen. Calls follow the shape of the dose curve; as a rule, active = well fitted inhibition curve with a large enough effect in the polarisation, with a control signal flat (not every such curve was filed as active); inconclusive = small, poorly fitted or top-dose-only effect, or effect the other way, or a change in a side signal; inactive = no such curve, though single readings can be large or run the other way; the % refers to the polarisation. A potency beside an inconclusive call is a rough fit, not a confirmed value. A note “side channel” means that the fit belongs to a control or component signal, not to the main read-out.

molecular target: Menin (Homo sapiens) (UniProt O00255); test: qHTS Assay for Inhibitors Targeting the Menin-MLL Interaction in MLL Related Leukemias: Competition With Texas Red Labeled MLL-derived Mutant Peptide; conditions: fluorescence polarization; series mostly up to 61.6 µM
Potency is read from the fitted curve at half-maximal effect; tags tell the direction and shape of the fitted curve or compound fluorescence and quenching.

UniProt O00255, sequence (O00255 whole entry, looked up): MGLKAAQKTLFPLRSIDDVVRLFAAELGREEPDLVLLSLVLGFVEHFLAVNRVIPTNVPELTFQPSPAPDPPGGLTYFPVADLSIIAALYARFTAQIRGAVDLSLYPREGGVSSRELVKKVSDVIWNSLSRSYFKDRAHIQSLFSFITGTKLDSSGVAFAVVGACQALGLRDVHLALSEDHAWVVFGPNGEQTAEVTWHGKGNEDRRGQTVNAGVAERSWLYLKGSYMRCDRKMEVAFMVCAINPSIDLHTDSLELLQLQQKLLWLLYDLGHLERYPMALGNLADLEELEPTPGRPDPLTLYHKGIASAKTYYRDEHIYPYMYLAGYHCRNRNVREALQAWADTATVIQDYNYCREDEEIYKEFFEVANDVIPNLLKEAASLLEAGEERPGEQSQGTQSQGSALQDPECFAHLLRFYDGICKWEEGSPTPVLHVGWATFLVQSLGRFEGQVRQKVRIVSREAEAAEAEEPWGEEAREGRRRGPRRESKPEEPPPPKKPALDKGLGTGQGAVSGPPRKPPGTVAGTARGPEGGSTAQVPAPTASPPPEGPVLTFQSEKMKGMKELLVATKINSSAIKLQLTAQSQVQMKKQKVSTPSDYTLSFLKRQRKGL

Potency, inconclusive:
COc1cc(/C=C(\C#N)C(=O)Nc2ccc(SC(F)F)cc2)cc(OC)c1OC 11.2 µM [quencher, side channel, partial curve], CCN(CC)CCN(C(=O)c1ccc2c(c1)OCCO2)c1nc2cc3c(cc2s1)OCO3 2 µM [fluorescent, side channel, partial curve], CCn1c(SCc2cccc(C)c2)nnc1-c1ccc(C)cc1 2.82 µM [fluorescent, side channel, full curve, poor fit], Cc1cccc(N=Nc2c(N)n[nH]c2-c2ccc(Cl)cc2)c1 12.6 µM [quencher, side channel, partial curve], Cc1ccc(/C=N/NC(=O)c2cccs2)cc1[N+](=O)[O-] 20 µM [quencher, side channel, single point], Cn1c(N)c(C(=O)COC(=O)CSc2ccc3ccccc3c2)c(=O)n(C)c1=O 11.2 µM [quencher, side channel, partial curve], O=C(Nc1sccc1C(=O)N1CCOCC1)c1cccnc1 3.16 µM [inhibitor, single point], O=C(Nc1cccc(F)c1)c1ccc(S(=O)(=O)N2CCCCC2)cc1 22.4 µM [quencher, side channel, partial curve, poor fit], COc1ccccc1NC(=S)NC(=O)CCCOc1ccc(Cl)cc1Cl 22.4 µM [quencher, side channel, single point], CCCc1[nH]n(-c2ccc([N+](=O)[O-])cc2)c(=O)c1C=NCCc1ccc(OC)c(OC)c1 2.82 µM [quencher, side channel, full curve, poor fit], O=c1oc2ccccc2cc1-c1csc(Cc2nc(-c3ccc(Br)cc3)cs2)n1 10 µM [quencher, side channel, partial curve], COc1ccc(NS(=O)(=O)c2ccc(N3CCCC3)c(N)c2)cc1 28.2 µM [quencher, side channel, single point], CCOc1cc(N2CCOCC2)c(OCC)cc1NC(=O)c1ccc(OC)cc1 2 µM [inhibitor, full curve, poor fit], Cc1cc(C)c2c(C)c(C(=O)NCc3ccc(S(N)(=O)=O)cc3)oc2c1 39.8 µM [fluorescent, side channel, single point], COc1ccc(NC(=O)COc2nc3ccccc3nc2N2CCOCC2)c(OC)c1 39.8 µM [fluorescent, side channel, single point], CCOC(=O)c1c(CC(C)C)csc1NC(=O)C(C)C 31.6 µM [fluorescent, side channel, single point], O=C(CSc1ncnc2c1nnn2Cc1ccc(F)cc1)NC1CCCC1 31.6 µM [fluorescent, side channel, single point], COc1ccc2cc(C(=O)N3CCc4ccccc43)[nH]c2c1 31.6 µM [inhibitor, single point], O=C(N/N=C/c1ccc(N2CCOCC2)cc1)c1ccc(NS(=O)(=O)c2cccs2)cc1 17.8 µM [quencher, partial curve], COc1ccc(C(C(=O)NCC2CCCO2)N(C(=O)Cn2nnc3ccccc32)c2ccccc2C(C)=O)cc1OC (stereo unspecified) 25.1 µM [inhibitor, single point], NS(=O)(=O)c1ccc(NS(=O)(=O)c2ccc(NC(=O)c3ccc(-c4ccccc4)cc3)cc2)cc1 2.82 µM [quencher, side channel, partial curve], O=C(COc1ccc(Br)cc1Br)NC(=S)N1CCCc2ccccc21 15.8 µM [inhibitor, partial curve], O=[N+]([O-])c1cc(Cl)c(O)c2ncccc12 28.2 µM [quencher, side channel, single point], COc1ccc(C(=O)Nc2ccccc2C(=O)NC(Cc2ccc(O)cc2)C(=O)NNC(=O)c2ccncc2)cc1 (stereo unspecified) 39.8 µM [inhibitor, single point], CC(NC(=O)c1cc(-c2cccs2)on1)c1ccccc1 (stereo unspecified) 20 µM [fluorescent, side channel, single point], CCO[C@H]1OC(C(=O)N2CCCCCCC2)=C[C@@H](C2CCCCC2)[C@@H]1CCCO 3.98 µM [fluorescent, side channel, partial curve], CCCNC(=O)N1N=C(c2ccc(N)cc2)c2cc3c(cc2C1C)OCO3 (stereo unspecified) 10 µM [inhibitor, partial curve], Cc1ccc(NCC(=O)N/N=C/c2cccc(Br)c2)cc1 22.4 µM [quencher, side channel, single point], Cc1ccc(O)c(NC(=O)C2=CC(c3cccs3)=NS(=O)(=O)N2C)c1 31.6 µM [quencher, side channel, single point], COc1cc(/C=N/NC(=O)/C(=C\c2ccc([N+](=O)[O-])cc2)NC(=O)c2ccccc2)cc(OC)c1O 31.6 µM [quencher, side channel, partial curve]

Potency, inactive:
Cc1oc2c(O)c(O)ccc2c(=O)c1-c1cnn(-c2ccccc2)c1, COc1cc(/C=N/NC(=O)c2ccccc2)ccc1O, COc1cccc(C2Nc3ccccc3NC3=C2C(=O)CC(C)(C)C3)c1OC (stereo unspecified), O=c1c(-c2ccccc2)nc2cnc(N3CCOCC3)nc2n1Cc1cccs1, C1CCN(C2CCN(c3nc4nonc4nc3N3CCSCC3)CC2)C1, CCCCC(=O)O[C@]1(C(=O)CO)[C@H](C)C[C@H]2[C@@H]3CCC4=CC(=O)C=C[C@]4(C)[C@@]3(F)[C@@H](O)C[C@@]21C
